In PubChem BioAssay AID686978 (National Center for Advancing Translational Sciences (NCATS), 2013):
Out of some 420,000 compounds screened, about 64,000 (15%) were called active. The shares of active, inactive and inconclusive entries below differ from those in the screen. Calls follow the shape of the dose curve; as a rule, active = well fitted inhibition curve with a large enough effect; inconclusive = small, poorly fitted or top-dose-only effect; inactive = flat fitted curve, though single readings scatter. No potency is given beside an inconclusive call; the fits are too rough.

assay: qHTS for Inhibitors of human tyrosyl-DNA phosphodiesterase 1 (TDP1): qHTS in cells in absence of CPT; conditions: DT40 Tdp1-/- hTDP1 cells, no CPT, ATP luminescence, 48 h; activity change, negative = growth inhibition: at 46.2 µM (top of the series) unless noted; also: nearly all actives have a fitted effect of over 55% in size
Procedure, shortened: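 Stably hTDP1-transfected Tdp1-null chicken DT40 cells were treated with library compounds minus camptothecin and grown for at least 48 hr at 37 °C, after which cellular ATP was quantified by luminescence.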
% is scaled to controls: 0 for no effect and ±100 for the full control effect; potency is read from the fitted curve at half-maximal effect; tags tell the direction and shape of the fitted curve.

SMILES	Potency	activity change, negative = growth inhibition
O=C(O)c1cccc(N2C(=O)c3cc4cccc(Br)c4cc3C2=O)c1	inconclusive [inhibitor, partial curve]	
Cc1ccc(Oc2ccc(NS(=O)(=O)c3cccc(C(=O)O)c3)cc2)cc1	active: 7.31 µM	
COc1ccc(C2C(C#N)=C(N)Oc3cc(O)ccc32)cc1Cl (centres undefined)	inconclusive [inhibitor, single point]	
C=CCNC(=O)/C(C#N)=C\c1cc(Cl)c(OCC)c(OC)c1	inconclusive [inhibitor, single point]	
CC1(C(=O)Nc2ccc3c(c2)OCCO3)CCN1Cc1csc2ccccc12 (centres undefined)	inconclusive [inhibitor, partial curve]	
NC(=O)C1CCCN(C(=O)c2ccc3oc(Cc4ccc(Cl)cc4)nc3c2)C1 (centres undefined)		inactive: 6.65%
Cc1ccc(NC(=O)N2C3CCCC2CC(NC(=O)C2CC2)C3)cc1 (centres undefined)		inactive: -14.8%
CC1C(=O)N2CCCc3cc(NC(=O)COc4ccc(Cl)cc4)cc1c32 (centres undefined)	inconclusive [inhibitor, single point]	
C=CCNC(=S)NN=C1CCCCCCC1	active: 25.9 µM	
Cn1c2ccccc2c2nnc(SCC(=O)Nc3cccc(C(=O)O)c3)nc21		inactive: -5.31%
Cc1cc(NC(=O)c2cc(-c3cccs3)nc3ccccc23)no1	active: 25.9 µM	
CSc1ccc(Cl)c(C(=O)NCCOc2ccccc2)c1	inconclusive [inhibitor, partial curve]	
CC(C)CN(C(=O)COC(=O)C12CC3CC(CC(Cl)(C3)C1)C2)c1c(N)n(Cc2ccccc2)c(=O)[nH]c1=O	inconclusive [inhibitor, single point]	
Cc1ccsc1CN(C(=O)c1ccccc1)C1CCS(=O)(=O)C1 (centres undefined)		inactive: -11.2%
O=C(COc1ccc(Cl)cc1)c1ccc(O)cc1O	inconclusive [inhibitor, single point]	
O=C(Nc1ccc(NC(=O)c2ccccc2)nc1)c1ccncc1	inconclusive [inhibitor, single point]	
COC(=O)c1ccc(N(C(=O)c2ccco2)C(C(=O)NC2CCCC2)c2ccco2)cc1 (centres undefined)	inconclusive [inhibitor, single point]	
Oc1ccc(C2C[C@H]3CC[C@@H]2C3)cc1O (some centres undefined)	inconclusive [inhibitor, single point]	
Cc1ccc(S(=O)(=O)N2CCN(C(=O)c3cc(C4CC4)nc4c3cnn4C(C)C)CC2)cc1	active: 4.11 µM	
OC(COc1ccc(Cl)cc1Cl)CN1CCc2ccccc2C1 (centres undefined)	inconclusive [inhibitor, single point]	
Cc1ccc(S(=O)(=O)N2CCOCC2)cc1C(=O)Nc1nc(-c2cccnc2)cs1	inconclusive [inhibitor, single point]	
COC(=O)c1sccc1S(=O)(=O)N(CC(=O)NCc1ccc(F)cc1)c1ccc(Cl)cc1	inconclusive [inhibitor, single point]	
COc1ccc(CNCc2ccc(OC)c3ccccc23)cc1	inconclusive [inhibitor, single point]	
CCOC(=O)N1CCN(CCC(=O)Nc2ccc(F)c(F)c2)CC1		inactive: -15.1%
CN(C)c1ccc(Cc2cc3c(O)ccc(O)c3cc(Cc3ccc(N(C)C)cc3)c2=O)cc1	active: 4.11 µM	

SMILES	Potency	activity change, negative = growth inhibition
Fc1ccc(NC(=S)N2CCN(c3ncccn3)CC2)cc1		inactive: -3.77%
CCOC(=O)c1cc2ccccc2n1CCN(CC)CC		inactive: -13.1%
CC(=O)N1CCc2cc(S(=O)(=O)Nc3ccccc3N3CCN(C)CC3)ccc21	inconclusive [inhibitor, single point]	
COc1ccc2[nH]c3nc(SCC(=O)NNC(=O)c4ccc(OC)c(OC)c4)nnc3c2c1	inconclusive [inhibitor, single point]	
CC1CCCN(CCC(=O)Nc2ccc3c(c2)CCC3)C1 (centres undefined)		inconclusive: -31.4% [inhibitor]
Cc1cccc2c(=O)n3c(nc12)CCCCC3		inactive: -12.9%
COC1OC(COCc2ccccc2)C(N)C(OCc2ccccc2)C1OCc1ccccc1 (centres undefined)	inconclusive [inhibitor, single point]	
O=C(CSCc1c(Cl)cccc1Cl)Nc1ccc2c(c1)OCO2	active: 18.4 µM	
NNC(=S)NCc1ccccc1	inconclusive [inhibitor, single point]	
COc1ccc(C2C(C#N)=C(/N=C/N3CCOCC3)OC3=C2C(=O)CC(C)(C)C3)cc1OC (centres undefined)		inactive: -4.9%
COc1ccc(-c2c(NC(=O)c3ccco3)oc3ccccc3c2=O)cc1OC		inactive: -13.7%
Cc1ccc(C(=O)Nc2ccc(C(=O)N3CCCCC3)cc2)cc1		inactive: -23.5%
Cc1oc(-c2cccc(Cl)c2)nc1Cn1c(SCc2ccccc2F)nc2ccncc21	active: 23.1 µM	
CCC(=O)c1cc(F)ccc1OCC(=O)N1CCN(c2ccc(F)cc2)CC1	active: 20.6 µM	
O=C(O)COc1ccccc1/C=N/NC(=O)c1cc(-c2ccc(Cl)cc2)nc2ccccc12	active: 6.51 µM	
Cc1cc(C)cc(NC(=O)Cn2c(C(F)(F)F)nc3ccccc32)c1		inactive: -21.9%
CCOC(=O)Cc1nnc(NC(=O)C(CC)Sc2nc(C)cc(=O)[nH]2)s1 (centres undefined)	active: 16.4 µM	
COc1ccc(C)cc1NC(=O)c1cc2ccccc2cc1OCC(=O)NCc1ccco1	inconclusive [inhibitor, full curve]	
CCOC(=O)c1c(C)[nH]c(C(=O)C(C)Sc2ccc(Cl)cc2)c1C (centres undefined)	inconclusive [inhibitor, partial curve]	
COc1ccccc1NC(=O)CSC1=Nc2ccccc2C2=NC(CC(=O)NCc3cccs3)C(=O)N12 (centres undefined)	active: 20.6 µM	
COc1ccc(CCNC(=O)c2ccc3c(c2)N(Cc2ccccc2C)C(=O)c2ccccc2S3)cc1OC	active: 3.66 µM	
O=C(NCC1CCN(Cc2cccc(Cl)c2)CC1)Nc1ccccc1Cl	inconclusive [inhibitor, single point]	
COCCNC(=O)c1ccc(NS(=O)(=O)c2ccc3[nH]c(=O)[nH]c3c2)cc1		inactive: -2.26%
COc1ccc(CN2CCN(C(=O)c3ccc(-c4ccccc4)cc3)CC2)c(OC)c1OC	inconclusive [inhibitor, single point]	
N#C/C(=C\C1CC2C=CC1C2)c1nc2ccccc2[nH]1 (centres undefined)	inconclusive [inhibitor, single point]	

SMILES	Potency	activity change, negative = growth inhibition
O=C(Nc1ccc(NC(=O)c2cccs2)c(Cl)c1)c1ccco1	inconclusive [inhibitor, single point]	
COC(=O)C1=CN(Cc2ccc(C)cc2)C=C(C(=O)OC)C1c1cc(OC)c(OC)c(OC)c1	inconclusive [inhibitor, single point]	
CC1CCC(=C(C#N)c2nc(-c3cc4ccccc4oc3=O)cs2)CC1 (centres undefined)	active: 20.6 µM	
COc1ccc(OCC(=O)O/N=C(\N)Cc2ccc(Cl)cc2Cl)cc1	inconclusive [inhibitor, full curve, poor fit]	
COc1cc(/C=C/C(=O)O)ccc1OS(=O)(=O)c1cc(Br)ccc1C	inconclusive [inhibitor, single point]	
Cc1ccc(S(=O)(=O)N2CCCCC2)cc1NC(=O)COC(=O)c1cccn1C	inconclusive [inhibitor, single point]	
Cc1ccccc1NC(=O)CSc1nnc(-c2cccs2)o1		inactive: -10.2%
CC(=O)N1CCc2cc(C(=O)CN3CCN(c4cccc(Cl)c4)CC3)ccc21	active: 20.6 µM	
Oc1ccc(Nc2nnc(-c3ccc(O)cc3)c3ccccc23)cc1	inconclusive [inhibitor, partial curve, poor fit]	
CCn1c(SCC(=O)Nc2cccc(S(=O)(=O)N(C)c3ccccc3)c2)nnc1C1CC1	inconclusive [inhibitor, single point]	
Cc1cc(C)cc(-n2c(SCC(=O)NCc3ccc4c(c3)OCO4)nc3ccccc3c2=O)c1	active: 18.4 µM	
CCc1ccc2oc(-c3cc(NC(=O)c4cc([N+](=O)[O-])ccc4N4CCOCC4)ccc3Cl)nc2c1	inconclusive [inhibitor, single point]	
CC(C)(C)OC(=O)CNC(=O)c1nc[nH]c1C(=O)N1CCc2ccccc2C1		inactive: -4.61%
CCCN(CCC)C(=O)Cn1c(=O)n(-c2ccc(Cl)cc2)c(=O)c2c3c(sc21)CCCC3		inactive: -2.23%
COc1ccc(CNC(=O)c2cnc(N3CCOCC3)c3ccccc23)cc1	inconclusive [inhibitor, single point]	
COc1ccc(C(c2nnnn2Cc2ccccc2)N2CCN(c3nc4ccccc4s3)CC2)cc1 (centres undefined)	inconclusive [inhibitor, single point]	
O=C(Cn1ncn2c(cc3sccc32)c1=O)NC1CCCC1		inactive: -11.6%
O=C(NC1CCCC1)C(c1ccncc1)N(Cc1ccco1)C(=O)c1ccc(-c2ccccc2)[nH]1 (centres undefined)	active: 16.4 µM	
N#Cc1ccccc1NC(=O)CSc1nnc(N)s1		inactive: -13.2%
COc1ccc(N=Nc2ccc(O)c3ncccc23)cc1	active: 1.46 µM	
CN(C)S(=O)(=O)c1ccc(C(=O)NCCc2ccco2)cc1	active: 23.1 µM	
COc1ccc(CN2C(=O)c3cccnc3C2=O)cc1S(=O)(=O)N1CCOc2ccc(C)cc21		inactive: -1.71%
Cc1ccccc1-c1cc2nc(C)c(C)c(=O)n2[nH]1	inconclusive [inhibitor, single point]	
Cc1ccc(C)c(NC(=O)CCc2c(C)nn(-c3ccc(N4CCCCC4)nn3)c2C)c1	inconclusive [inhibitor, single point]	
